Here are results for 49 molecules from the supplement of paper PMC10498489.

Each structure is given as a SMILES string. The whole screen tested about 2,300 compounds, of which about 330 (14%) showed activity.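 The calls were made as follows: active = median modified Z-score above 1.96; inactive = 1.96 or below.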 The list shows a part of the results, in another mix than the full data.

This assay concerns HepG2 Srxn1-GFP reporter cells (+30 nM CDDO-Me). Briefly: Srxn1-GFP intensity median modified Z-score relative to plate median; higher = stronger NRF2 / oxidative stress reporter activation, active = hit call of the paper. The settings on record: 10 µM; exposure time: 24h. A digest of the protocol:
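HepG2 Srxn1-GFP BAC reporter cells were seeded at 20,000 per well in 96-well plates and co-exposed for 24 h to compound at 10 μM and an NRF2 activator at 30 nM, with DMSO at ≤0.1%, in three replicate plates. Cells were fixed with formaldehyde, stained with Hoechst and imaged by confocal microscopy, and cytoplasmic GFP was measured per cell, with images holding under 100 cells discarded. The reported value is the median over replicates of each plate's modified Z-score of GFP intensity. For this score, scaling used 1.4826 × median absolute deviation.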
`CCOC(=O)C1=C(C)N=C(C)C(C(=O)OC)C1c1cccc([N+](=O)[O-])c1` (centres undefined) [euspeclibcmpd494]: the “Srxn1-GFP intensity median modified Z-score” value was inactive: 0.225.

As to `OCCOCCN1CCN(C(c2ccccc2)c2ccc(Cl)cc2)CC1` (centres undefined) [euspeclibcmpd157], the “Srxn1-GFP intensity median modified Z-score” value is inactive: 0.149.

With `CC(C)COC(=O)c1ccc(N)cc1` [euspeclibcmpd937], the “Srxn1-GFP intensity median modified Z-score” value was inactive: -0.0579.

For the molecule `COc1ccc(-c2coc3c(OC)c(OC)cc(O)c3c2=O)cc1` [euspeclibcmpd1614], the “Srxn1-GFP intensity median modified Z-score” value was inactive: -0.0408.

For the molecule `Cc1ccccc1N1C(=O)c2cc(S(N)(=O)=O)c(Cl)cc2NC1C` (centres undefined) [euspeclibcmpd959], the “Srxn1-GFP intensity median modified Z-score” value is inactive: 0.331.

With `C=C1CCC(c2cc(O)oc2O)C(=O)CCC2C1CC2(C)C` (centres undefined) [euspeclibcmpd1822], the “Srxn1-GFP intensity median modified Z-score” value is inactive: -0.357.

In the case of `Cc1cc(-n2c(=O)[nH]c(=O)n(C)c2=O)ccc1Oc1ccc(SC(F)(F)F)cc1` [euspeclibcmpd839], the “Srxn1-GFP intensity median modified Z-score” value was active: 2.22.

Consider `CC(Oc1c(Cl)cccc1Cl)C1=NCCN1` (centres undefined) [euspeclibcmpd482], for which the “Srxn1-GFP intensity median modified Z-score” value was inactive: 0.104.

Regarding `CCc1cccc2c3c([nH]c12)C(CC)(CC(=O)O)OCC3` (centres undefined) [euspeclibcmpd365], the “Srxn1-GFP intensity median modified Z-score” value was inactive: -0.403.

As to `CCOc1ccc(C(=O)c2ccc(O)c(O)c2O)cc1` [euspeclibcmpd1369], the “Srxn1-GFP intensity median modified Z-score” value is inactive: 0.486.

Regarding `COc1cc(O)c(C)c(O)c1` [euspeclibcmpd1569], the “Srxn1-GFP intensity median modified Z-score” value is inactive: 0.198.

Consider `C[N+](C)(CCOc1ccccc1)Cc1ccccc1` [euspeclibcmpd868], for which the “Srxn1-GFP intensity median modified Z-score” value was active: 2.62.

Turning to `C=CC[C@]1(O)CCC2C3=C(C=C[C@@]21C)C1=C(CC3)CC(=O)CC1` (some centres undefined) [euspeclibcmpd848], the “Srxn1-GFP intensity median modified Z-score” value is inactive: 0.704.

As to `COc1ccc2[nH]cc(CCNC(C)=O)c2c1` [euspeclibcmpd1720], the “Srxn1-GFP intensity median modified Z-score” value was inactive: -0.164.

On to `CN1C2CCCC1CC(NC(=O)c1nn(C)c3ccccc13)C2` (centres undefined) [euspeclibcmpd1309], for which the “Srxn1-GFP intensity median modified Z-score” value is inactive: -0.397.

`CCN(CC)CC#CCOC(=O)C(O)(c1ccccc1)C1CCCCC1` (centres undefined) [euspeclibcmpd772]: the “Srxn1-GFP intensity median modified Z-score” value was inactive: 1.05.

As to `Cc1ncc([N+](=O)[O-])n1CCO` [euspeclibcmpd199], the “Srxn1-GFP intensity median modified Z-score” value is inactive: -0.216.

Turning to `OC(CCN1CCCCC1)(c1ccccc1)C1CC2C=CC1C2` (centres undefined) [euspeclibcmpd811], the “Srxn1-GFP intensity median modified Z-score” value was inactive: -0.0967.

Consider `CCN(Cc1ccncc1)C(=O)C(CO)c1ccccc1` (centres undefined) [euspeclibcmpd314], for which the “Srxn1-GFP intensity median modified Z-score” value is inactive: -0.732.

Regarding `CC(=O)C12OC(C)(c3ccccc3)OC1CC1C3CC=C4CC(=O)CCC4(C)C3CCC12C` (centres undefined) [euspeclibcmpd1961], the “Srxn1-GFP intensity median modified Z-score” value was active: 5.88.

Regarding `CCn1cc(C(=O)O)c(=O)c2ccc(C)nc21` [euspeclibcmpd341], the “Srxn1-GFP intensity median modified Z-score” value is inactive: -0.326.

In the case of `COc1ccc2cc(CCC(C)=O)ccc2c1` [euspeclibcmpd594], the “Srxn1-GFP intensity median modified Z-score” value was inactive: 0.246.

Consider `CCCCCC(CC(O)=NO)C(=O)NC(C(=O)N1CCCC1CO)C(C)C` (centres undefined) [euspeclibcmpd1993], for which the “Srxn1-GFP intensity median modified Z-score” value was active: 11.7.

In the case of `CCCCCC(C)N` (centres undefined) [euspeclibcmpd316], the “Srxn1-GFP intensity median modified Z-score” value is inactive: 0.0731.

For the molecule `C#CCN(C)Cc1ccccc1` [euspeclibcmpd228], the “Srxn1-GFP intensity median modified Z-score” value is inactive: 0.0861.

`Oc1c(I)cc(I)c2cccnc12` [euspeclibcmpd2015]: the “Srxn1-GFP intensity median modified Z-score” value was inactive: 1.62.

`O=C(CCCN1CC=C(n2c(=O)[nH]c3ccccc32)CC1)c1ccc(F)cc1` [euspeclibcmpd363]: the “Srxn1-GFP intensity median modified Z-score” value is inactive: 0.0802.

On to `COc1cc([C@@H]2c3cc4c(cc3C(OC3O[C@@H]5COC(C)O[C@H]5[C@H](O)[C@H]3O)C3COC(=O)C32)OCO4)cc(OC)c1O` (some centres undefined) [euspeclibcmpd356], for which the “Srxn1-GFP intensity median modified Z-score” value was active: 2.43.

As to `CCn1cc(C(=O)O)c(=O)c2cnc(N3CCNCC3)nc21` [euspeclibcmpd1020], the “Srxn1-GFP intensity median modified Z-score” value is inactive: -0.229.

For the molecule `Cc1ccc(S(=O)(=O)NC(=O)NN2CC3CCCC3C2)cc1` (centres undefined) [euspeclibcmpd1166], the “Srxn1-GFP intensity median modified Z-score” value is inactive: -0.136.

For `O=c1c(O)cccc2cc(O)c(O)c(O)c12` [euspeclibcmpd1723], the “Srxn1-GFP intensity median modified Z-score” value is inactive: -0.877.

With `CONC(=O)c1cc(-c2ccccc2)nc2ccccc12`, the “Srxn1-GFP intensity median modified Z-score” value is inactive: 1.04.

In the case of `Cc1ncc(CSSCc2cnc(C)c(O)c2CO)c(CO)c1O` [euspeclibcmpd1217], the “Srxn1-GFP intensity median modified Z-score” value was inactive: -0.667.

For the molecule `CC(=O)Oc1cccc2c1C(=O)c1c(OC(C)=O)cc(C(=O)O)cc1C2=O` [euspeclibcmpd1072], the “Srxn1-GFP intensity median modified Z-score” value was active: 4.68.

With `Nc1ccc(C(=O)NCC(=O)O)cc1` [euspeclibcmpd518], the “Srxn1-GFP intensity median modified Z-score” value is inactive: 0.0841.

As to `CC1(C)OC(=O)NC1=O` [euspeclibcmpd99], the “Srxn1-GFP intensity median modified Z-score” value was inactive: 0.00531.

For `COc1cc(/C=C/C(=O)O)cc(OC)c1OC` [euspeclibcmpd1646], the “Srxn1-GFP intensity median modified Z-score” value is inactive: -0.063.

Regarding `CN(C)CCc1c[nH]c2ccc(Cn3cncn3)cc12` [euspeclibcmpd998], the “Srxn1-GFP intensity median modified Z-score” value was inactive: 0.0248.

In the case of `Nc1ccc(S(=O)(=O)c2ccc(N)cc2)cc1` [euspeclibcmpd82], the “Srxn1-GFP intensity median modified Z-score” value is inactive: 0.

`OC[C@H]1O[C@@H](Oc2ccc(O)cc2)[C@H](O)[C@@H](O)[C@@H]1O` [euspeclibcmpd1710]: the “Srxn1-GFP intensity median modified Z-score” value is inactive: -0.0575.

Regarding `NC(=O)NC(CC(=O)O)C(=O)O` (centres undefined), the “Srxn1-GFP intensity median modified Z-score” value is inactive: 1.02.

As to `CCN(CC)Cc1ccc(N=c2cc[nH]c3cc(Cl)ccc23)cc1O` [euspeclibcmpd22], the “Srxn1-GFP intensity median modified Z-score” value is active: 3.72.

Turning to `O=C(O[C@H]1CN2CCC1CC2)N1CCc2ccccc2[C@@H]1c1ccccc1` [euspeclibcmpd807], the “Srxn1-GFP intensity median modified Z-score” value is inactive: -0.131.

Consider `CN1CCCCC1CCN1c2ccccc2Sc2ccc([S+](C)[O-])cc21` (centres undefined) [euspeclibcmpd700], for which the “Srxn1-GFP intensity median modified Z-score” value was inactive: -0.503.

In the case of `CN1CCCC(n2nc(Cc3ccc(Cl)cc3)c3ccccc3c2=O)CC1` (centres undefined) [euspeclibcmpd749], the “Srxn1-GFP intensity median modified Z-score” value was inactive: 0.118.

For the molecule `CN(C)CCC[C@@]1(c2ccc(F)cc2)OCc2cc(C#N)ccc21` [euspeclibcmpd2158], the “Srxn1-GFP intensity median modified Z-score” value is inactive: 0.664.

For `N=c1ncn([C@@H]2O[C@H](CO)[C@@H](O)[C@H]2O)c(=O)[nH]1` [euspeclibcmpd436], the “Srxn1-GFP intensity median modified Z-score” value is active: 15.1.

Turning to `CC1=CC(=O)NS(=O)(=O)O1` [euspeclibcmpd2309], the “Srxn1-GFP intensity median modified Z-score” value was inactive: -0.191.

For the molecule `COc1ccc(CC(N)C(=O)N[C@@H]2[C@@H](CO)OC(n3cnc4c(N(C)C)ncnc43)[C@@H]2O)cc1` (some centres undefined) [euspeclibcmpd2118], the “Srxn1-GFP intensity median modified Z-score” value was active: 2.51.
